Experimental data taken from the supplement of paper PMC8728848.
The list shows a part of the results.

How the values were obtained:
Assay in all cases: glycan array binding signal (z-score within array); higher = stronger binding
Conditions in all cases: glycan notation: IUPAC condensed, linker removed
Kdn(a2-3)Gal(b1-4)Glc = target: Kdn(a2-3)Gal(b1-4)Glc
Outline: (§1)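 Arrays were curated from the Consortium for Functional Glycomics database, 3228 in total, and kept only where the protein sequence was available. Binding is expressed as a within-array Z-score. This score was averaged across arrays of the same protein sequence at different concentrations or buffers and across linkers, and negative values can be read as non-binding.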

Kdn(a2-3)Gal(b1-4)GlcNAc = target: Kdn(a2-3)Gal(b1-4)GlcNAc
Outline: as §1

[1] = target: Kdn(a2-3)Gal(b1-4)[Fuc(a1-3)]GlcNAc
Outline: as §1

Kdn(a2-6)Gal(b1-4)GlcNAc = target: Kdn(a2-6)Gal(b1-4)GlcNAc
Outline: as §1

[2] = target: Man(a1-2)Man(a1-2)Man(a1-3)Man
Outline: as §1

[3] = target: Man(a1-2)Man(a1-2)Man(a1-6)[Man(a1-3)]Man
Outline: as §1

Man(a1-2)Man(a1-3)Man = target: Man(a1-2)Man(a1-3)Man
Outline: as §1

[4] = target: Man(a1-2)Man(a1-3)[Man(a1-2)Man(a1-6)]Man
Outline: as §1

[5] = target: Man(a1-2)Man(a1-3)[Man(a1-2)Man(a1-6)]Man(a1-6)[Man(a1-2)Man(a1-2)Man(a1-3)]Man
Outline: as §1

[6] = target: Man(a1-2)Man(a1-3)[Man(a1-2)Man(a1-6)]Man(a1-6)[Man(a1-2)Man(a1-2)Man(a1-3)]Man(b1-4)GlcNAc(b1-4)GlcNAc
Outline: as §1

[7] = target: Man(a1-2)Man(a1-3)[Man(a1-6)]Man(a1-6)[Man(a1-2)Man(a1-3)]Man(b1-4)GlcNAc(b1-4)GlcNAc
Outline: as §1

[8] = target: Man(a1-2)Man(a1-6)[Man(a1-3)]Man(a1-6)[Man(a1-2)Man(a1-2)Man(a1-3)]Man
Outline: as §1

[9] = target: Man(a1-2)Man(a1-6)[Man(a1-3)]Man(a1-6)[Man(a1-2)Man(a1-2)Man(a1-3)]Man(b1-4)GlcNAc(b1-4)GlcNAc
Outline: as §1

Man(a1-3)[Man(a1-6)]Man = target: Man(a1-3)[Man(a1-6)]Man
Outline: as §1

[10] = target: Man(a1-3)[Man(a1-6)]Man(a1-6)[Man(a1-2)Man(a1-3)]Man(b1-4)GlcNAc(b1-4)GlcNAc
Outline: as §1

[11] = target: Man(a1-3)[Man(a1-6)]Man(a1-6)[Man(a1-3)]Man
Outline: as §1

[12] = target: Man(a1-3)[Man(a1-6)]Man(a1-6)[Man(a1-3)]Man(b1-4)GlcNAc(b1-4)GlcNAc
Outline: as §1

[13] = target: Man(a1-3)[Man(a1-6)]Man(b1-4)GlcNAc(b1-4)GlcNAc
Outline: as §1

[14] = target: Man(a1-3)[Man(a1-6)]Man(b1-4)GlcNAc(b1-4)[Fuc(a1-6)]GlcNAc
Outline: as §1

Man(a1-6)Man = target: Man(a1-6)Man
Outline: as §1

Man(b1-4)GlcNAc = target: Man(b1-4)GlcNAc
Outline: as §1

MurNAc(b1-4)GlcNAc = target: MurNAc(b1-4)GlcNAc
Outline: as §1

Neu5Ac(a2-3)Gal = target: Neu5Ac(a2-3)Gal
Outline: as §1

[15] = target: Neu5Ac(a2-3)Gal(b1-3)GalNAc
Outline: as §1

[16] = target: Neu5Ac(a2-3)Gal(b1-3)GalNAc(b1-3)Gal(a1-4)Gal(b1-4)Glc
Outline: as §1

[17] = target: Neu5Ac(a2-3)Gal(b1-3)GalNAc(b1-4)Gal(b1-4)Glc
Outline: as §1

[18] = target: Neu5Ac(a2-3)Gal(b1-3)GalNAc(b1-4)[Neu5Ac(a2-3)]Gal(b1-4)Glc
Outline: as §1

[19] = target: Neu5Ac(a2-3)Gal(b1-3)GalNAc(b1-4)[Neu5Ac(a2-8)Neu5Ac(a2-3)]Gal(b1-4)Glc
Outline: as §1

[20] = target: Neu5Ac(a2-3)Gal(b1-3)GalNAc6S
Outline: as §1

[21] = target: Neu5Ac(a2-3)Gal(b1-3)GlcNAc
Outline: as §1

[22] = target: Neu5Ac(a2-3)Gal(b1-3)GlcNAc(b1-2)Man
Outline: as §1

[23] = target: Neu5Ac(a2-3)Gal(b1-3)GlcNAc(b1-2)Man(a1-3)[GlcNAc(b1-4)][Neu5Ac(a2-3)Gal(b1-3)GlcNAc(b1-2)Man(a1-6)]Man(b1-4)GlcNAc(b1-4)GlcNAc
Outline: as §1

[24] = target: Neu5Ac(a2-3)Gal(b1-3)GlcNAc(b1-2)Man(a1-3)[Neu5Ac(a2-3)Gal(b1-3)GlcNAc(b1-2)Man(a1-6)]Man(b1-4)GlcNAc(b1-4)GlcNAc
Outline: as §1

[25] = target: Neu5Ac(a2-3)Gal(b1-3)GlcNAc(b1-2)[Neu5Ac(a2-3)Gal(b1-3)GlcNAc(b1-4)]Man(a1-6)[Neu5Ac(a2-3)Gal(b1-3)GlcNAc(b1-2)Man(a1-3)]Man(b1-4)GlcNAc(b1-4)GlcNAc
Outline: as §1

[26] = target: Neu5Ac(a2-3)Gal(b1-3)GlcNAc(b1-3)Gal(b1-3)GlcNAc
Outline: as §1

[27] = target: Neu5Ac(a2-3)Gal(b1-3)GlcNAc(b1-3)Gal(b1-4)GlcNAc
Outline: as §1

[28] = target: Neu5Ac(a2-3)Gal(b1-3)GlcNAc(b1-3)GalNAc
Outline: as §1

[29] = target: Neu5Ac(a2-3)Gal(b1-3)GlcNAc(b1-6)GalNAc
Outline: as §1

B1: ClecSol-Fc (Cryptosporidium parvum) (protein)
chain: CPEGWISNGEKTRCFKLVTFDRPRTFSHGFKACNDLGGTEVETRRRNGSKETNEYPVTLASVYKLSDEEAIRRTLVEQGDIHKTANGCFVGLRKYAFFRYPPGWYWIDSGSPVSVRDSEINWTSSYNASWLLRFKFPFEKCGFFDIGGLGRRPCWLIDSELSCAVCGTVAYDSGGLNPNKYSELIKQTDEIISKEPKLDLPGYNNLNCTDAWENNLSVGLCQNVSNILDSAWSSYQSSLNFPSINFNWKEDSTNEGGDQVYHNSYLDLPRYKQKKTFYWDQDPGTIPALSDEMKLIGLSAQPTYHPLDRSSSGSFESDSTESGRANEERNDTLEEMIYKQSSDSIEDILVPVTKPIFSDYSSIGRNSGVEEVYSSNVSTISSKGVVFPNTTTSSDNDFTKNNPANSSKHTSTSTTTNTTTTTTRTTTTTTTTTTTTTTTTTTTTETTTTKKSTTATKNTTTT
- glycan array binding signal (z-score) (Kdn(a2-3)Gal(b1-4)Glc): -0.08
- glycan array binding signal (z-score) (Kdn(a2-3)Gal(b1-4)GlcNAc): -0.05
- glycan array binding signal (z-score) [1]: -0.089
- glycan array binding signal (z-score) (Kdn(a2-6)Gal(b1-4)GlcNAc): 0.075
- glycan array binding signal (z-score) [2]: -0.284
- glycan array binding signal (z-score) [3]: -0.165
- glycan array binding signal (z-score) (Man(a1-2)Man(a1-3)Man): -0.081
- glycan array binding signal (z-score) [4]: -0.033
- glycan array binding signal (z-score) [5]: -0.203
- glycan array binding signal (z-score) [6]: -0.099
- glycan array binding signal (z-score) [7]: -0.067
- glycan array binding signal (z-score) [8]: -0.145
- glycan array binding signal (z-score) [9]: -0.127
- glycan array binding signal (z-score) (Man(a1-3)[Man(a1-6)]Man): -0.292
- glycan array binding signal (z-score) [10]: -0.14
- glycan array binding signal (z-score) [11]: -0.016
- glycan array binding signal (z-score) [12]: -0.229
- glycan array binding signal (z-score) [13]: -0.001
- glycan array binding signal (z-score) [14]: -0.104
- glycan array binding signal (z-score) (Man(a1-6)Man): 0.126
- glycan array binding signal (z-score) (Man(b1-4)GlcNAc): -0.06
- glycan array binding signal (z-score) (MurNAc(b1-4)GlcNAc): 0.04
- glycan array binding signal (z-score) (Neu5Ac(a2-3)Gal): -0.199
- glycan array binding signal (z-score) [15]: -0.168
- glycan array binding signal (z-score) [16]: -0.076
- glycan array binding signal (z-score) [17]: -0.148
- glycan array binding signal (z-score) [18]: -0.187
- glycan array binding signal (z-score) [19]: -0.152
- glycan array binding signal (z-score) [20]: -0.119
- glycan array binding signal (z-score) [21]: 0.014
- glycan array binding signal (z-score) [22]: -0.101
- glycan array binding signal (z-score) [23]: 0.101
- glycan array binding signal (z-score) [24]: 0.094
- glycan array binding signal (z-score) [25]: -0.188
- glycan array binding signal (z-score) [26]: -0.133
- glycan array binding signal (z-score) [27]: -0.22
- glycan array binding signal (z-score) [28]: 0.124
- glycan array binding signal (z-score) [29]: -0.123
